ChEMBL document CHEMBL1201862, “PubChem BioAssay data set” (2004)

What follows are compounds tested on NCI-H322M (assay: NCI tumour cell line growth inhibition, 48 h).
For `CCSCCCC(=O)O`, the GI50 was inactive: > 100 µM. `CN1CCCN(C)C1c1cc([N+](=O)[O-])ccc1O` was tested, and the GI50 was inactive: 37.7 µM. In the case of `C[C@H](C/C=C/C(C)(C)O)[C@H]1CC[C@@]2(C)[C@@H]3CC[C@H]4C(C)(C)[C@@H](O)CC[C@@]45C[C@@]35CC[C@]12C`, the GI50 is reported as inactive: 10.3 µM. `O=C1Nc2ccccc2/C1=N/NC(=S)Nc1ccc([N+](=O)[O-])cc1` was tested, and the GI50 was inactive: 12.4 µM. With `C/C=C(/C)C(=O)O[C@@H]1c2c(C)coc2C[C@H]2CC[C@H](O)[C@H](C)[C@]21C` the GI50 was inactive: > 100 µM. `Cc1cc(=O)n(-c2cc3cccccc-3n2)[nH]1` was tested, and the GI50 was inactive: 17.8 µM. For `CCOC1=NC(C(F)(F)F)(C(F)(F)F)N=C(N2CCOCC2)O1`, the GI50 was inactive: > 100 µM. `CCOc1ccc(N(CC(=O)N2CC(=O)Nc3cc(C)c(C)cc32)C(C)=O)cc1` was tested, and the GI50 was inactive: > 100 µM. For `O=c1c2nn3c(=O)n(-c4ccccc4)c(=O)c3nn2c(=O)n1-c1ccccc1`, the GI50 was inactive: > 100 µM. With `O=C(NC12CC3CC(CC(C3)C1)C2)C(=O)c1c[nH]c2ccc([N+](=O)[O-])cc12` the GI50 was inactive: 56.2 µM. `Cn1c(=O)c2c3ccccc3n(C)c2n(C)c1=O` was tested, and the GI50 was inactive: > 100 µM. For `Nc1cc2c3c(cccc3c1)C(=O)N(c1ccc(OCCN3CCCC3)cc1)C2=O`, the GI50 was inactive: 20.3 µM. For `O=[N+]([O-])c1ccc(C2=Nc3ccccc3SC(c3ccccc3)C2)cc1` (centres undefined), the GI50 was inactive: 57.4 µM. For `O=C1CCC2CCC1C2` (centres undefined), the GI50 was inactive: > 100 µM. `C[C@]12CCC(=O)C(OC(=O)c3ccc([N+](=O)[O-])cc3)=C1CCC2=O` was tested, and the GI50 was inactive: > 100 µM. For `O=C(Nc1ccccc1[N+](=O)[O-])/C(=N/Nc1cccc(Cl)c1)c1c(O)c2ccccc2oc1=O`, the GI50 was inactive: 54.2 µM. `C/C=C1\CN2CCc3c([nH]c4ccccc34)C2C=C1CCO` (centres undefined) was tested, and the GI50 was inactive: > 340 µM. For `CN(C)CC(/C(Cc1ccccc1)=N\NC(=O)c1ccncc1)c1ccccc1` (centres undefined), the GI50 was inactive: 41.5 µM. With `COC1=CC23C=CC1[C@@H](c1ccccc1)C2=C(C)C(=O)N3C(=O)NC1CCCCC1` (some centres undefined) the GI50 was inactive: 21.4 µM. In the case of `NC(=O)Nc1c([N+](=O)[O-])cc(C(F)(F)F)cc1[N+](=O)[O-]`, the GI50 is reported as inactive: > 100 µM. For `Cc1ccc2cccc3c2c1CC1(C3=O)S(=O)(=O)OCCOS1(=O)=O`, the GI50 was inactive: > 100 µM. `C(=N\N=C1NCCCCN1)/c1ccc2ccccc2c1` was tested, and the GI50 was inactive: 34 µM. In the case of `C[N+]12C=CC=C1C(N1CCCC1)c1scc(-c3ccc(Br)cc3)c12` (centres undefined), the GI50 is reported as inactive: 86.3 µM. In the case of `O=C(O)C12C3C4C1C1C2C3C1(Br)C41OCCO1` (centres undefined), the GI50 is reported as inactive: > 100 µM. `CON1C(=O)C2(CCCCC2)C(=O)C12C=CC(C)CC2` (centres undefined) was tested, and the GI50 was inactive: > 100 µM. `NC(=S)N/N=C1\NC(=O)/C(=C/c2ccc3c(c2)OCO3)S1` was tested, and the GI50 was inactive: 27.4 µM. `O=c1[nH]/c(=C/c2ccc(OCc3ccccc3)cn2)c(=O)[nH]/c1=C/c1ccc([N+](=O)[O-])cc1` was tested, and the GI50 was inactive: > 100 µM. In the case of `CC1(C)OC[C@@H](O)[C@H](Br)CO1`, the GI50 is reported as inactive: > 100 µM. `O=C(c1cc(Cl)cc(Cl)c1)N(C(=S)OC12CC3CC(CC(C3)C1)C2)c1ccccc1` was tested, and the GI50 was inactive: 45.7 µM. In the case of `CCCCC(CCCC)=NNC(=S)SC`, the GI50 is reported as inactive: 25.5 µM. In the case of `[O-][S+]1Cc2ccccc2CSS1` (centres undefined), the GI50 is reported as inactive: > 100 µM. For `Cc1cc(O)c(C(=O)O)c2c1C(=O)c1c(O)c(OCC(O)C(O)C(O)C(O)CO)c(O)c(O)c1C2=O.NCCNCCO` (centres undefined), the GI50 was inactive: > 100 µM. In the case of `CCc1ccc2c(c1)/C(=C1/Nc3ccccc3/C1=N/O)C(=O)N2`, the GI50 is reported as inactive: 5.47 µM. In the case of `CCOC(=O)C1C(c2ccccc2)C2(C#N)C(=N)OC1(C)C2(C#N)C#N` (centres undefined), the GI50 is reported as inactive: 17.3 µM. In the case of `CC(C)=CCc1ccc2[nH]c3c(c2c1)C(=O)C(=O)C(C)=C3C(O)C(C)O` (centres undefined), the GI50 is reported as inactive: 18.6 µM. In the case of `CCC1=NC(N/N=C/c2ccccc2O)=N/C1=C\c1ccccc1O`, the GI50 is reported as inactive: 13.5 µM. With `CCOC(=O)/C(C(N)=O)=C(O)/C(O)=C(\Br)C(=O)c1ccccc1` the GI50 was inactive: 45.9 µM. In the case of `CCCOc1ccc(/C=C/C2=[N+](CCO)CCO2)cc1`, the GI50 is reported as inactive: > 100 µM. With `COC(=O)C1=CCON(c2ccccc2)C1c1ccccc1` (centres undefined) the GI50 was inactive: 86.5 µM. In the case of `CN1N=C(c2ccncc2)OC1c1ccc(Cl)c(Cl)c1` (centres undefined), the GI50 is reported as inactive: > 100 µM. In the case of `C=C1C(C(=O)O)C1C(=O)O` (centres undefined), the GI50 is reported as inactive: > 100 µM. `O=[N+]([O-])/C(C(Cl)=C(Cl)Cl)=C(/Cl)SCc1ccccc1` was tested, and the GI50 was inactive: 20.9 µM. For `O=C(CCN1CCOCC1)C(=Cc1ccccc1)C(=O)CCN1CCOCC1`, the GI50 was inactive: 22.2 µM. For `CCCCCCSCC/C(C)=N\OC`, the GI50 was inactive: > 100 µM. For `CCN(c1cccc(NC(=S)Nc2ccccc2N(CC)c2cc(-c3ccccc3)no2)c1)c1cc(-c2ccccc2)no1`, the GI50 was inactive: > 100 µM. With `CCOC(=O)/C=C(/C(=O)OCC)n1ccc(=O)n(CC(=O)OCC)c1=O` the GI50 was inactive: 11.8 µM. With `COC(=O)[C@H](CCSC)NC(=O)N[C@H](C)c1ccccc1` the GI50 was inactive: > 100 µM. `N#C/C(=C1C=C(Br)/C(=N\O)C=C\1Cl)c1cccc2ccccc12` was tested, and the GI50 was inactive: 4.45 µM. With `CSc1ncc2c(n1)-c1ccccc1OC2N1CCCC1` (centres undefined) the GI50 was inactive: > 100 µM. `O=C(/C=C/c1ccc2c(c1)OCO2)Cc1nc2ccccc2[nH]c1=O` was tested, and the GI50 was inactive: 33.5 µM. With `CCOC(=N)CC(=O)c1ccccc1` the GI50 was inactive: > 100 µM. `CC(C)(C)C1=CC(C)(n2[nH]c(=O)n(-c3ccccc3)c2=O)C=C(C(C)(C)C)C1=O` was tested, and the GI50 was inactive: > 100 µM. In the case of `Nc1ncc(/C=N/O)c(NCC2(CO)CC(CCc3ccccc3)C2)n1` (centres undefined), the GI50 is reported as inactive: 11.9 µM. In the case of `O=C1c2cc3ccccc3cc2C2(c3ccc(Cl)cc3)N[C@H]3CCCC[C@@H]3N12` (some centres undefined), the GI50 is reported as inactive: 15.8 µM. With `COc1ccc(C2COc3c(ccc(O)c3C)C2)cc1OC` (centres undefined) the GI50 was inactive: 125 µM. For `Cc1cc2oc(=O)[nH]c(=S)c2c(C)c1C`, the GI50 was inactive: > 100 µM. In the case of `COc1cc(/C=C2\CC(C)C/C(=C\c3ccc(O)c(OC)c3)C2=O)ccc1O` (centres undefined), the GI50 is reported as inactive: 6.18 µM. `O=C1CCCC/C1=C(\Br)I` was tested, and the GI50 was inactive: 17.7 µM. For `O=C(NNC(=O)/C(=C/c1cccc([N+](=O)[O-])c1)NC(=O)c1ccccc1)Nc1ccc(Cl)cc1`, the GI50 was inactive: 13.2 µM. `Cc1cc2c([N+](=O)[O-])cc3c(c2o1)C(=O)C=CC3=O` was tested, and the GI50 was inactive: 17 µM. For `CC(C)c1[nH]nc(C(N)=O)c1/N=N/N(C)C`, the GI50 was inactive: > 100 µM. In the case of `Clc1cc(Cl)ncn1`, the GI50 is reported as inactive: > 100 µM. `COc1cc(C2S/C(=C/c3ccccc3)C(=O)N2c2cccc(NC(C)=O)c2)cc(OC)c1OC` (centres undefined) was tested, and the GI50 was inactive: 23.8 µM. `O=C(COc1ccc(OCC(=O)N/N=C/c2ccc(-c3ccc(Cl)cc3Cl)o2)c(Cl)c1)N/N=C/c1ccc(-c2ccc(Cl)cc2Cl)o1` was tested, and the GI50 was inactive: > 100 µM. With `Cc1ccc(-c2cc(O)c3nc4ccccc4n3c2)cc1` the GI50 was inactive: > 100 µM. In the case of `CCOC(=O)[C@H]1Nc2c(cccc2[N+](=O)[O-])[C@H]2OCC[C@@H]12`, the GI50 is reported as inactive: > 100 µM. With `CCOc1cc(NC(C)=O)ccc1C(=O)NNS(=O)(=O)c1ccc(Cl)cc1Cl` the GI50 was inactive: > 50 µM. With `Cc1ccc(OC2CC(n3cnc4c(=O)[nH]c(Br)nc43)OC2Oc2ccc(C)cc2)cc1` (centres undefined) the GI50 was inactive: 20.8 µM. In the case of `S=C(Nc1ccccc1)Nc1ccccc1SC(/C=C/NNC1=NN=C(c2ccccc2)C(c2ccccc2)N1)c1ccccc1` (centres undefined), the GI50 is reported as inactive: > 100 µM. `COC(=O)c1cc(C#N)[nH]c1-c1ccsc1` was tested, and the GI50 was inactive: > 100 µM. In the case of `O=c1ccn([C@@H]2C[C@H]2CO)c(=O)[nH]1`, the GI50 is reported as inactive: > 100 µM. `O=c1[nH]c(=O)n(C2OC(CO)C(O)C(F)C2O)cc1F` (centres undefined) was tested, and the GI50 was inactive: > 100 µM. For `CCOC(=O)CCCn1nnc(C(=O)OCC)c1C(=O)OCC`, the GI50 was inactive: > 100 µM. `C[C@]12CCC(=O)C=C1CC[C@@H]1C2CC[C@]2(C)Nc3[nH]ncc3CC12` (some centres undefined) was tested, and the GI50 was inactive: > 100 µM. With `O=C(NCCN1CCCCC1)c1ccc(Br)cc1` the GI50 was inactive: > 100 µM. In the case of `O=C(O)C1=Cc2cccc3cccc(c23)C1=O`, the GI50 is reported as inactive: > 100 µM. For `O=c1oc2c3ccc4ccccc4c3n(CCN3CCOCC3)c2c2ccccc12`, the GI50 was inactive: 7.74 µM. With `O=C(Nc1ccn(C2CCC(CO)O2)c(=O)n1)c1ccccc1` (centres undefined) the GI50 was inactive: > 100 µM. In the case of `COc1cc([C@@H]2c3cc4c(cc3[C@@H](Nc3ccc([N+](=O)[O-])cc3C(=O)c3ccccc3)[C@H]3COC(=O)[C@H]23)OCO4)cc(OC)c1OC`, the GI50 is reported as active: 0.596 µM. In the case of `CC[N+](CC)(CC)/C(=N\S(=O)(=O)c1ccc(Cl)cc1)[N-]S(=O)(=O)c1cc(C)c(Cl)cc1S`, the GI50 is reported as inactive: 66.1 µM. `CC1(N2CCOCC2)CC2C(=[N+]1[O-])CCC/C2=N/O` (centres undefined) was tested, and the GI50 was inactive: 7.14 µM. For `CC(=O)NNc1nc(C)c(C(/C=C/c2ccc([N+](=O)[O-])cc2)=N/NC(N)=O)s1`, the GI50 was inactive: > 100 µM. `O=C(/C=C/c1ccc(Cl)c(Cl)c1)c1cccc2ccccc12` was tested, and the GI50 was inactive: 16.2 µM. For `Cc1ccc(N2Cc3c(ccc4ccccc34)OP2(=O)Oc2ccc(Cl)c(C)c2)cc1` (centres undefined), the GI50 was inactive: > 60.8 µM. `CN[C@@H](C)[C@H](N)c1ccccc1` was tested, and the GI50 was inactive: > 100 µM. `CC(C)[C@H]1NC(=O)[C@H]2N=C(O[C@@H]2C)[C@@H]2CCCN2C(=O)[C@H](Cc2ccccc2)NC(=O)[C@@H]2CSC(=N2)[C@@H](Cc2ccccc2)NC(=O)[C@@H]2CSC1=N2` was tested, and the GI50 was inactive: > 100 µM. `CCCCCC1CC(C(C)=O)CN1c1ccc(F)cc1` (centres undefined) was tested, and the GI50 was inactive: > 100 µM. With `OCC1OC(c2n[nH]c3c(O)ncnc23)C(O)C1O` (centres undefined) the GI50 was inactive: 20.2 µM. `Cc1ccc(/C=C2\CN(C)CC3=C2OC(N)=C(C#N)C3c2ccc(C)cc2)cc1` (centres undefined) was tested, and the GI50 was inactive: 27.4 µM. In the case of `O=C1Sc2ccccc2C(=O)N2CSCC12` (centres undefined), the GI50 is reported as inactive: > 100 µM. In the case of `CCN(CC)CCC(=O)Nc1ccc2sc3ccccc3c(=O)c2n1`, the GI50 is reported as inactive: 16.6 µM. In the case of `Cc1cc(S(N)(=O)=O)c(SCc2nc(N)nc(N(C)C)n2)cc1Cl`, the GI50 is reported as inactive: > 10 µM. For `CCCCc1cc2c(cc1O)CCC1C2CC[C@@]2(C)C1CC[C@@H]2O` (some centres undefined), the GI50 was inactive: 21.6 µM. `CCN(CC)CCOc1ccc(CCc2cc(OC)c(OC)c(OC)c2)cc1` was tested, and the GI50 was inactive: > 100 µM.

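Compound exposure: 48 hours, 5 concentrations, 96-well plates. At the GI50, growth is halved.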 Active and inactive are the calls of the source. Rule as the data show it: active = GI50 up to about 1.1 µM and inactive = higher.
